Data: PubChem BioAssay AID360 (National Center for Advancing Translational Sciences (NCATS), 2006)
In all, about 48,000 compounds went through this assay and about 550 (1.1%) were called active. Another 4% or so got no clear call; they are omitted. No stated cut-off is given here; in the data, active means potency below about 15 µM; inconclusive means mostly about 16 µM to 33 µM; inactive means weaker than that. The list shows a part of the results.

target: Lysosomal acid glucosylceramidase (Homo sapiens) (UniProt P04062); test: Glucocerebrosidase; details: purified enzyme, resorufin glucoside fluorescence (screen aimed at inhibitors), 20 min;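 further: the screen sought inhibitors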
Description: NCGC Assay Overview: Beta-glucocerebrosidase catalyzes the hydrolysis of beta-glucocerebroside to glucose and ceramide. The inherited deficiency of beta-glucocerebrosidase results in Gaucher disease, which is characterized by a wide variety of symptoms including hepatosplenomegaly, anemia, thrombocytopenia, bony lesions and bone marrow infiltration with characteristic storage cells, known as Gaucher cells. There are also forms of the disorder affecting the central nervous system. Patients with the same genotypes can manifest with diverse clinical presentations and it is believed that improper folding and trafficking of beta-glucocerbrosidase may contribute to the phenotypes observed. Low molecular weight molecules, acting as chaperones, may potentially restore trafficking of misfolded beta-glucocerebrosidase from the endoplasmic reticulum to the lysosomes, thereby enhancing functional lysosomal beta-glucocerebrosidase activity. Using normal beta-glucocerebrosidase, an assay was developed to screen for small molecule inhibitors that could potentially act as molecular chaperones on the mutant forms [developed with NIH investigator Dr. Ellen Sidransky's laboratory]. Two pro-fluorescent substrates were chosen for two screens against a small molecule library. One beta-glucocerebrosidase assay used Resorufin beta-D-Glucopyranoside (Marker Gene Technology Inc.), generating a red fluorescent product. The second assay used Fluorescein di-beta-D-Glucopyranoside, generating a blue fluorescent product. […] The IC50 values of Conduritol B Epoxide, a known glucocerebrosidase inhibitor, were determined to be 87.5 uM and 117 uM, respectively. The use of two difference pro-fluorescent substrates in the screens helped to eliminate false positives. All compounds were screened in a titration series resulting in AC50s (e.g., IC50s or EC50s).
NCGC Assay Protocol Summary: Both enzyme and substrate were diluted in buffer composed of 50mM citric acid/KH2PO4, 10mM sodium taurocholate and 0.01% tween-20 at pH 5.9. The final concentration of the enzyme was 0.2 nM in both assays. The compound library was titrated in 7 to 15 concentrations for the primary screens with a final concentration ranging from 0.6 nM to 50 uM. This particular assay protocol is for the "red" substrate, and it was performed in 1536-well plate format as follows: Red fluorescence substrate assay: 2 uL enzyme 23 nL compound 1 uL substrate (final concentration of 30 uM) Incubate at room temperature (RT) for 20 minutes Read the plate in Viewlux plate reader (Ex=548(7) and Em=600(10)).
Potency means the concentration at half of the fitted maximal effect.

UniProt P04062, sequence (P04062 whole entry, looked up): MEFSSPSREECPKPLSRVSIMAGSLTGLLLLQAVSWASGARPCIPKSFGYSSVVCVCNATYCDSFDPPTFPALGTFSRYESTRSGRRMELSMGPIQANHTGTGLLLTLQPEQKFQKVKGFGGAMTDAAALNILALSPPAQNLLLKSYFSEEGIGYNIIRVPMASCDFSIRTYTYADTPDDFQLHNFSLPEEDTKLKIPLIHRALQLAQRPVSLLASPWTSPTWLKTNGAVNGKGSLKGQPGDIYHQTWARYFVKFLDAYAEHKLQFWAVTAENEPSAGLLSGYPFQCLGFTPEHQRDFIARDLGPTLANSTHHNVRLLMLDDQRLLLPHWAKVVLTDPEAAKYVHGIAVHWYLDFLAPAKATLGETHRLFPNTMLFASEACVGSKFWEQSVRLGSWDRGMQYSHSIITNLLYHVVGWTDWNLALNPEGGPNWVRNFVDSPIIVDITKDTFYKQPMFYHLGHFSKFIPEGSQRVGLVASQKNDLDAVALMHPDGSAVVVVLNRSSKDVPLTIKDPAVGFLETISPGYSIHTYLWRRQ

Potency, inactive:
COc1ccc(N2CCN(C(CNC(=O)c3ccc4c(c3)OCO4)c3cccnc3)CC2)cc1 (stereo unspecified) > 76.9 µM
CC12CCCCC1c1ccccc1C(=NCC(=O)O)N2 (stereo unspecified)
C=CCn1c(CNC(=O)c2ccccc2C)nnc1SCC(=O)NC1CCCC1 > 76.9 µM
N#CC1(c2ccccc2)CCCN1C(=O)c1ccc(Br)o1 (stereo unspecified) > 76.9 µM
Cc1cc(NS(=O)(=O)Cc2ccccc2)no1 > 76.9 µM
COc1ccc(CN2C(=O)C(O)(CC(=O)c3c(C)n[nH]c3C)c3ccccc32)cc1OC (stereo unspecified) > 76.9 µM
CCc1ccccc1-n1cnc2cc(C(=O)O)ccc21 > 76.9 µM
Cc1noc(C)c1CSCC(=O)OCC(=O)N1CC(=O)Nc2ccccc21 > 76.9 µM
CN(C)CCNC(=O)C(C(=O)c1ccccc1)n1ccccc1=O (stereo unspecified) > 76.9 µM
COc1ccc(C(=O)C2CCN(C(=O)c3ccco3)CC2)cc1 > 76.9 µM
CN(c1cc(=O)n2ccccc2n1)C1CCCCC1 > 76.9 µM
COCc1[nH]nc2c1C(c1c(F)cccc1Cl)C(C#N)=C(N)O2 (stereo unspecified) > 76.9 µM
COC(=O)[C@H](CCSC)NC(=O)Nc1ccc(C)cc1 > 76.9 µM
Cc1nc2c(cc(Oc3ccc(S(=O)(=O)N4CCOCC4)cn3)c3ccsc32)s1 > 76.9 µM
COc1ccc(NC2=NCC(=O)N2c2ccccc2F)c(OC)c1 > 76.9 µM
O=C(c1ccccc1)c1ccc(OCC(O)CN2CCCCC2)cc1 (stereo unspecified) > 76.9 µM
O=C(NCc1ccco1)c1cc(-c2cccnc2)nc2ccc(Cl)cc12 > 76.9 µM
CCCOCC1CC2(SC(=Nc3ccc(C)cc3)NC2=O)C(=O)O1 (stereo unspecified) > 76.9 µM
CCOc1c(C(N)=O)c(-c2ccccc2)c2c(=O)[nH]c3ccccc3n12 > 76.9 µM
COc1cc(/C=c2\sc3nc(-c4ccncc4)nn3c2=O)ccc1OC(C)=O > 76.9 µM
Cc1c2c(nc3nc4ccccc4n13)CC(C)(C)CC2=O > 76.9 µM
COCCn1nnnc1CN(CCCN1CCOCC1)Cc1cc2c(C)ccc(C)c2[nH]c1=O > 76.9 µM
CC(C)CC(=O)N1CCN(S(=O)(=O)c2ccc(F)cc2)CC1 > 76.9 µM
c1cncc(CNC2CCCc3ccccc32)c1 (stereo unspecified) > 76.9 µM
CCOC(=O)C1CCN(Cc2ccc(C(=O)OC)cc2)CC1 > 76.9 µM
Cn1c(=O)c2c(-c3ccccc3)n(-c3ccccc3O)cc2n(C)c1=O > 76.9 µM
CC1(C)Cc2c(sc3nc(-c4cc5ccccc5o4)n(N)c(=O)c23)CO1 > 76.9 µM
CCCCC(=O)Nc1sc2c(c1C(N)=O)CCC2 > 76.9 µM
CCOC(=O)Cc1csc2nc3sc(C)c(C)c3c(=O)n12 > 76.9 µM
COc1ccc(S(=O)(=O)N2CCCC(C(=O)N3CCCCCC3)C2)cc1 (stereo unspecified) > 76.9 µM
O=C(Nc1scc(-c2ccc(F)cc2)c1C(=O)O)c1ccco1 > 76.9 µM
COc1ccc(C(=O)Nc2ncc3c(n2)CC(c2ccco2)CC3=O)cc1 (stereo unspecified) > 76.9 µM
COc1ccccc1CNC(=O)CCNC(=O)Cn1ccc2ccccc2c1=O > 76.9 µM
O=C(Cc1cccs1)N1CCN(c2nc(-c3ccc(Cl)cc3)cs2)CC1 > 76.9 µM
CCCCCCn1c(N2CCN(c3ccccc3)CC2)nc2c1c(=O)n(C)c(=O)n2C > 76.9 µM
CCOc1ncccc1C(=O)Nc1ccc2c(C)cc(=O)oc2c1 > 76.9 µM
O=C(c1cccc(Cl)c1)N1CCN(Cc2ccncc2)CC1 > 76.9 µM
COCCn1nnnc1CN1C2CCCC1CC(NC(C)=O)C2 (stereo unspecified) > 76.9 µM
COC(=O)c1cccc(NC(=O)C2COc3ccccc3O2)c1 (stereo unspecified) > 76.9 µM
O=C(CSc1nc(-c2ccco2)cc(C(F)(F)F)n1)N1CCSCC1 > 76.9 µM
Cc1ccc(S(=O)(=O)N(Cc2ccc(F)cc2)Cc2ccco2)cc1 > 76.9 µM
N#Cc1cc2c(nc1SCc1ccncc1)CCC2 > 76.9 µM
O=C(NCCC1=CCCCC1)c1cnccn1 > 76.9 µM
c1ccc(Nc2ncnc3c2oc2ccccc23)cc1 > 76.9 µM
Cc1cc(C)c2nc(N)sc2c1 > 76.9 µM
CCOc1cccc(/C(O)=C2/C(=O)C(=O)N(CCN3CCOCC3)C2c2cccnc2)c1 (stereo unspecified) > 76.9 µM
CC(=O)c1ccc(NC(=O)C2CCC(C)NC2=O)cc1 (stereo unspecified) > 76.9 µM
CCS(=O)(=O)NCCCc1ccccc1 > 76.9 µM
CCOCCCNC(=O)C(C)NS(=O)(=O)c1ccc(C)cc1 (stereo unspecified) > 76.9 µM
CCSc1nnc(NC(=O)c2cccc(OCc3c(C)noc3C)c2)s1
CCn1c(=O)cc(SCC(=O)NCc2ccccn2)c2ccccc21 > 76.9 µM
CCS(=O)(=O)Nc1ccc(Cc2ccncc2)cc1 > 76.9 µM
CC1(C)Cc2c(c(=S)nc(-c3ccccc3)n2CCO)CO1 > 76.9 µM
COc1ccc(N2C(=O)NC3CC2(C)Oc2ccccc23)cc1OC (stereo unspecified) > 76.9 µM
CC(C)OCCCNC(=O)NC12CC3CC(CC(C3)C1)C2 > 76.9 µM
COc1ccc(CNC(=O)CN2CCC(C(=O)c3ccc(OC)cc3)CC2)cc1 > 76.9 µM
CCCOC(=O)c1ccc(Nc2cc(C)nc3ncnn23)cc1 > 76.9 µM
COc1ccc2c(c1)C1CC(C)(NC(=O)C1C(=O)c1ccccc1)O2 (stereo unspecified) > 76.9 µM
CCN(CC)C(=O)CSc1nnc(-c2ccc(F)cc2)n1N > 76.9 µM
O=C(c1ccc(Cl)cc1)c1ccc(OCC(=O)N2CCOCC2)cc1 > 76.9 µM
O=C(CCc1ccc(S(=O)(=O)N2CCCCC2)cc1)c1nnc(-c2ccccc2)o1 > 76.9 µM
Cc1ccc(-c2nnc(N(C)C(=O)c3ccccn3)s2)cn1 > 76.9 µM
Cc1cc(C)cc(NC(=O)C2CCN(c3nc(C)cc(C)n3)CC2)c1 > 76.9 µM
COc1ccc2[nH]c(=O)c(-c3noc(-c4ccc(F)cc4)n3)cc2c1 > 76.9 µM
Cc1ccc(-c2csc3nc(=O)c(C)nn23)cc1 > 76.9 µM
Cc1ccc(-n2c(Cc3cccn3C)nnc2SCC(=O)Nc2nnc(C)s2)cc1
O=C(O)c1ccc2c(c1)nnn2C1CCCCC1 > 76.9 µM
O=C(Nc1ccc2c(c1)OCO2)C1CCN(C(=O)c2cccs2)CC1 > 76.9 µM
COc1ccc(CC(=O)NC(C)c2nnc(SCC(=O)Nc3nc(C)cs3)n2C)cc1 (stereo unspecified) > 76.9 µM
COC(=O)c1cc2c(=O)n3ccccc3nc2n(Cc2cccnc2)c1=N > 76.9 µM
O=C(Oc1cccc(N2C(=O)CCC2=O)c1)C1CC(=O)N(c2ccc(F)cc2)C1 (stereo unspecified) > 76.9 µM
CCC(C)NC(=O)C1CCC(=O)N(c2cc(OC)c(OC)c(OC)c2)C1c1ccc(OC)cc1 (stereo unspecified) > 76.9 µM
CCOC(=O)C1CCN(S(=O)(=O)c2ccc(-n3cnnn3)c(C)c2)CC1 > 76.9 µM
CCOC(=O)N1CCC(Nc2nc3ccccc3nc2NS(=O)(=O)c2ccc(Cl)cc2)CC1 > 76.9 µM
CC1(O)c2ccccc2C(=O)N1Cc1ccccc1 (stereo unspecified) > 76.9 µM
COc1ccc(CNC(=O)C2CCCN(S(=O)(=O)c3cc(C)ccc3OC)C2)cc1 (stereo unspecified) > 76.9 µM
Cc1sc2nc(CN3CCN(S(=O)(=O)c4cccc5nonc45)CC3)[nH]c(=O)c2c1C > 76.9 µM
CCOC(=O)C(C)Sc1nnc(CNC(=O)c2ccc(OC)cc2)n1C1CCCCC1 (stereo unspecified) > 76.9 µM
COC(=O)c1cc(-c2ccccc2)n(CC(=O)O)c1C > 76.9 µM
COc1cc(NC(=O)c2ncn[nH]2)cc(OC)c1OC > 76.9 µM
COc1ccc(N(CC(=O)Nc2cccc(OC)c2)S(=O)(=O)c2c(C)nn(C)c2C)cc1 > 76.9 µM
O=C(c1cc2ccccc2o1)c1nc2c(n1O)CCCCC2 > 76.9 µM
Cc1cccn2c(=O)c3cc(C#N)c(=O)n(-c4c(C)n(C)n(-c5ccccc5)c4=O)c3nc12 > 76.9 µM
COc1ccc(C2=CSC3=NCCN23)cc1F > 76.9 µM
Cc1ccc(OCC(O)CN2CCN(CC(O)COc3ccc(C)cc3)CC2)cc1 (stereo unspecified) > 76.9 µM
COC(=O)c1ccccc1NC(=O)CSc1nc(O)cc(=O)n1C1CCCC1 > 76.9 µM
O=C(c1cnccn1)N(c1ccccc1)C1(C(=O)NC2CCCC2)CCCCC1 > 76.9 µM
CCCCCn1c(=O)[nH]c2cc(C(=O)NCc3ccc4c(c3)OCO4)ccc2c1=O > 76.9 µM
Nc1nnc(-c2ccccc2Cl)s1 > 76.9 µM
Cc1ccc(S(=O)(=O)NC(CC(=O)O)c2ccco2)cc1 (stereo unspecified) > 76.9 µM
Cc1nc(Nc2cccc(C(F)(F)F)c2)nc2c1C(=O)CC(C)C2 (stereo unspecified) > 76.9 µM
